Molecules are shown by their SMILES. Some results are limits rather than exact numbers.

What all share (assay): microbe, parasite or virus in culture
One assay deals with HIV-1 K103N RT mutant. The note with it: Human immunodeficiency virus 1, HeLa, read-out: K103N activity level, HeLa-CD4-LTR-β-gal cells, K103N virus. An excerpt:
(§1) The HeLa cell assay described herein is a modified version of Kimpton J. and Emerman M., Detection of replication-competent and pseudotyped human immunodeficiency virus with a sensitive cell line on the basis of activation of an integrated β-galactosidase gene, J. Virol. 66:2232-2239 (1992), in which HIV-1 infection is detected by the activation of an HIV-LTR driven β-galactosidase reporter that is integrated into the genome of a CD4+ HeLa cell line. Quantitation of β-galactosidase is achieved by measuring the activation of a chemiluminescent substrate (Applied Biosystems). The concentration of each compound required to inhibit 50% (IC50) of the HIV-1 induced β-galactosidase signal, relative to untreated controls, is determined for each isogenic, recombinant virus.
(§2) HeLa-CD4-LTR-β-gal cells are propagated in DMEM containing 10% fetal bovine serum+0.2 mg/ml geneticin+0.1 mg/ml hygromycin B. Cells are split by standard trypsinization when confluency reaches 80% (roughly every 2 to 3 days).
(§3) DNA encoding the HIV-1 reverse transcriptase is subcloned from a M13 phage into a general shuttle vector, pBCSK+, as a −1.65 kbp EcoRI/HindIII ended DNA fragment. The HIV DNA insert of the resulting plasmid, is completely sequenced on both strands prior to use in site directed mutagenesis experiments. Specific amino acid replacements are made using Stratagene Quick Change reagents and mutagenic oligonucleotides. The mutations that are made include K103N, V106A, Y181C, and Y188L. Following mutagenesis, the entire mutant RT coding sequence is verified by sequencing both DNA strands.
(§4) K103N, V106A, Y181C, and Y188L mutant HIV-1 strains and wild type strains are isolated by a modified Recombinant Virus Assay (Kellam P. and Larder B., Recombinant virus assay: a rapid, phenotypic assay for assessment of drug susceptibility of human immunodeficiency virus type 1 isolates, Antimicrobial Agents and Chemotherapy, 38:23-30, 1994). Ten million MT4 T-cells (maintained in RPMI containing 10% fetal bovine serum, split 1:5 every 5 to 6 days) are co-transfected with EcoRI/HindIII digested mutant RT plasmid and Bst EII-digested HIV-1HXB2ΔRT DNA in the presence of DMRIE-C transfection reagent (Gibco) according to supplier's recommended protocol. Each mutant RT coding sequence is crossed into the RT-deleted HIV-1 viral DNA backbone by in vivo homologous recombination. Transfected cell cultures are expanded and monitored until syncitia formation and CPE are extensive. Virus is harvested by clear spin of the culture supernatants, filtration of the supernatants through a 0.45 micron membrane and frozen at −80° C. as primary stocks. Recombinant progeny virus is sequenced in the RT region to confirm the mutant genotype. Some virus stocks require further expansion by infection of MT4 cells, harvested as above and stored as frozen aliquots. All stocks are titered in HeLa MAGI cells for assay.
(§5) HIV-1 virus stocks are titered in the HeLa-CD4-LTR-β-gal assay system to establish the appropriate infecting dose. The endpoint for this assay is relative light units (RLUs), and titer is recorded as RLUs/ml. Virus stocks are diluted (serial 1:2) into DMEM containing 10% FBS plus 25 ug/ml DEAE-dextran and assayed as described in the “Experimental Protocol” section below without test compound.
(§6) • 1. Seed 96-well plate(s) (Costar #3904) with HeLa-CD4-LTR-β-gal @ 3×10^3 cells per well in 100 ul DMEM containing 10% FBS. Incubate @ 37° C., 5% CO2 overnight. Day 2 • 1. Thaw virus stock in a water bath (room temperature) and dilute into DMEM+10% FBS+25 ug/ml DEAE-dextran to an infectious dose of approximately 10 million RLU/ml. The dilution of virus will vary depending on the titer of the stock (see “Titering of virus stocks” above). • 2. Remove all of the media from every well with an 8 or 12-channel manifold aspirator. Work with one plate at a time to prevent drying of the HeLa-CD4-LTR-β-gal monolayer. Add 35 ul (approximately 350,000 total RLUs) of diluted virus to each well. […]

For the next assay, the system named is HIV-1 V106A RT mutant. The note with it: Human immunodeficiency virus 1, HeLa, read-out: V106A activity level, HeLa-CD4-LTR-β-gal cells, V106A virus.
Text: as §1, §2, §3, §4, §5, §6

The subject of the next assay is HIV-1 Y181C RT mutant. The note with it: Human immunodeficiency virus 1, HeLa, read-out: Y181C activity level, HeLa-CD4-LTR-β-gal cells, Y181C virus.
Text: as §1, §2, §3, §4, §5, §6

Turning to `COc1ccc2[nH]c(C(=O)NCc3ccc(Cl)c(Oc4cc(Cl)cc(C#N)c4)c3F)cc2c1` [Example 20, N-({4-chloro-3-[(3-chloro-5-cyanophenyl)oxy]-2-fluorophenyl}methyl)-5-(methyloxy)-1H-indole-2-carboxamide], the IC50 in the assay on HIV-1 K103N RT mutant, in the assay with HIV-1 V106A RT mutant and with HIV-1 Y181C RT mutant was 10 to 1000 nM throughout.

On to `COc1ccc2cc(C(=O)NCc3ccc(Cl)c(Oc4cc(Cl)cc(C#N)c4)c3F)[nH]c2c1` [Example 21, N-({4-chloro-3-[(3-chloro-5-cyanophenyl)oxy]-2-fluorophenyl}methyl)-6-(methyloxy)-1H-indole-2-carboxamide], for which the IC50 in the assay with HIV-1 K103N RT mutant, with HIV-1 V106A RT mutant and in the assay on HIV-1 Y181C RT mutant was 10 to 1000 nM throughout.

Take `N#Cc1cc(Cl)cc(Oc2c(Cl)ccc(CNC(=O)c3cc4cc(OCC(CO)CO)ccc4[nH]3)c2F)c1` [Example 22, N-({4-chloro-3-[(3-chloro-5-cyanophenyl)oxy]-2-fluorophenyl}methyl)-5-{[3-hydroxy-2-(hydroxymethyl)propyl]oxy}-1H-indole-2-carboxamide]: the IC50 was < 10 nM in the assay on HIV-1 K103N RT mutant, 10 to 1000 nM in the assay on HIV-1 V106A RT mutant and < 10 nM in the assay with HIV-1 Y181C RT mutant.

Take `CC(C)(C)OC(=O)N1CCO[C@@H](COc2ccc3[nH]c(C(=O)NCc4ccc(Cl)c(Oc5cc(Cl)cc(C#N)c5)c4F)cc3c2)C1` [Example 23, 1,1-dimethylethyl (2R)-2-{[(2-{[({4-chloro-3-[(3-chloro-5-cyanophenyl)oxy]-2-fluorophenyl}methyl)amino]carbonyl}-1H-indol-5-yl)oxy]methyl}-4-morpholinecarboxylate]: the IC50 in the assay with HIV-1 K103N RT mutant, with HIV-1 V106A RT mutant and with HIV-1 Y181C RT mutant was 10 to 1000 nM in each case.

On to `N#Cc1cc(Cl)cc(Oc2c(Cl)ccc(CNC(=O)c3cc4cc(OC[C@H]5CNCCO5)ccc4[nH]3)c2F)c1` [Example 24, N-({4-Chloro-3-[(3-chloro-5-cyanophenyl)oxy]-2-fluorophenyl}methyl)-5-{[(2R)-2-morpholinylmethyl]oxy}-indole-2-carboxamide], for which the IC50 is < 10 nM in the assay with HIV-1 K103N RT mutant, 10 to 1000 nM in the assay on HIV-1 V106A RT mutant and 10 to 1000 nM in the assay with HIV-1 Y181C RT mutant.

Take `N#Cc1cc(Cl)cc(Oc2c(Cl)ccc(CNC(=O)c3cc4cc(O)ccc4[nH]3)c2F)c1` [Example 26, N-({4-chloro-3-[(3-chloro-5-cyanophenyl)oxy]-2-fluorophenyl}methyl)-5-hydroxy-1H-indole-2-carboxamide]: the IC50 with HIV-1 K103N RT mutant is < 10 nM; in the assay with HIV-1 V106A RT mutant, 10 to 1000 nM; with HIV-1 Y181C RT mutant it was < 10 nM.

Take `N#Cc1cc(Cl)cc(Oc2c(Cl)ccc(CNC(=O)c3cc4cc(OC(F)(F)F)ccc4[nH]3)c2F)c1` [Example 27, N-({4-chloro-3-[(3-chloro-5-cyanophenyl)oxy]-2-fluorophenyl}methyl)-5-[(trifluoromethyl)oxy]-1H-indole-2-carboxamide]: the IC50 in the assay on HIV-1 K103N RT mutant, with HIV-1 V106A RT mutant and in the assay with HIV-1 Y181C RT mutant was 10 to 1000 nM in each case.

Consider `N#Cc1cc(Cl)cc(Oc2c(Cl)ccc(CNC(=O)c3cc4ccccc4[nH]3)c2F)c1` [Example 28, N-({4-chloro-3-[(3-chloro-5-cyanophenyl)oxy]-2-fluorophenyl}methyl)-1H-indole-2-carboxamide], for which the IC50 with HIV-1 K103N RT mutant, with HIV-1 V106A RT mutant and with HIV-1 Y181C RT mutant was 10 to 1000 nM throughout.

For `N#Cc1cc(Cl)cc(Oc2c(Cl)ccc(CNC(=O)c3cc4cc(Br)ccc4[nH]3)c2F)c1` [Example 29, 5-bromo-N-({4-chloro-3-[(3-chloro-5-cyanophenyl)oxy]-2-fluorophenyl}methyl)-1H-indole-2-carboxamide], the IC50 in the assay with HIV-1 K103N RT mutant, in the assay with HIV-1 V106A RT mutant and in the assay on HIV-1 Y181C RT mutant was 10 to 1000 nM each time.

With `Cc1cc(Br)cc2cc(C(=O)NCc3ccc(Cl)c(Oc4cc(Cl)cc(C#N)c4)c3F)[nH]c12` [Example 30, 5-bromo-N-({4-chloro-3-[(3-chloro-5-cyanophenyl)oxy]-2-fluorophenyl}methyl)-7-methyl-1H-indole-2-carboxamide], the values for the IC50 in the assay on HIV-1 K103N RT mutant, with HIV-1 V106A RT mutant and in the assay with HIV-1 Y181C RT mutant were 10 to 1000 nM, > 1000 nM and > 1000 nM, respectively.

As for `N#Cc1cc(Cl)cc(Oc2c(Cl)ccc(CNC(=O)c3cc4ccc([N+](=O)[O-])cc4[nH]3)c2F)c1` [Example 31, N-({4-chloro-3-[(3-chloro-5-cyanophenyl)oxy]-2-fluorophenyl}methyl)-6-nitro-1H-indole-2-carboxamide], the IC50 with HIV-1 K103N RT mutant, with HIV-1 V106A RT mutant and in the assay on HIV-1 Y181C RT mutant was 10 to 1000 nM throughout.

Turning to `N#Cc1cc(Cl)cc(Oc2c(Cl)ccc(CNC(=O)c3cc4cccc(O)c4[nH]3)c2F)c1` [Example 32, N-({4-chloro-3-[(3-chloro-5-cyanophenyl)oxy]-2-fluorophenyl}methyl)-7-hydroxy-1H-indole-2-carboxamide], the values for the IC50 with HIV-1 K103N RT mutant, in the assay on HIV-1 V106A RT mutant and in the assay with HIV-1 Y181C RT mutant were 10 to 1000 nM, > 1000 nM and 10 to 1000 nM, respectively.

For the compound `CS(=O)(=O)c1cc(F)cc2cc(C(=O)NCc3ccc(Cl)c(Oc4cc(Cl)cc(C#N)c4)c3F)[nH]c12` [Example 33, N-({4-chloro-3-[(3-chloro-5-cyanophenyl)oxy]-2-fluorophenyl}methyl)-5-fluoro-7-(methylsulfonyl)-1H-indole-2-carboxamide], the IC50 is 10 to 1000 nM in the assay with HIV-1 K103N RT mutant, > 1000 nM in the assay with HIV-1 V106A RT mutant and 10 to 1000 nM with HIV-1 Y181C RT mutant.

Regarding `COc1cccc2[nH]c(C(=O)NCc3ccc(Cl)c(Oc4cc(Cl)cc(C#N)c4)c3F)cc12` [Example 34, N-({4-chloro-3-[(3-chloro-5-cyanophenyl)oxy]-2-fluorophenyl}methyl)-4-(methyloxy)-1H-indole-2-carboxamide], the IC50 with HIV-1 K103N RT mutant, in the assay on HIV-1 V106A RT mutant and with HIV-1 Y181C RT mutant was 10 to 1000 nM throughout.

`N#Cc1cc(Cl)cc(Oc2c(Cl)ccc(CNC(=O)c3nc4ccccc4[nH]3)c2F)c1` [Example 35, N-({4-chloro-3-[(3-chloro-5-cyanophenyl)oxy]-2-fluorophenyl}methyl)-1H-benzimidazole-2-carboxamide]: the IC50 in the assay on HIV-1 K103N RT mutant, in the assay on HIV-1 V106A RT mutant and in the assay with HIV-1 Y181C RT mutant was 10 to 1000 nM in each case.

Regarding `N#Cc1cc(Cl)cc(Oc2c(Cl)ccc(CNC(=O)c3cc4ccc(O)cc4[nH]3)c2F)c1` [Example 36, N-({4-chloro-3-[(3-chloro-5-cyanophenyl)oxy]-2-fluorophenyl}methyl)-6-hydroxy-1H-indole-2-carboxamide], the IC50 in the assay on HIV-1 K103N RT mutant, with HIV-1 V106A RT mutant and in the assay on HIV-1 Y181C RT mutant was < 10 nM each time.

Regarding `N#Cc1cc(Cl)cc(Oc2c(Cl)ccc(CNC(=O)c3cc4cccc([N+](=O)[O-])c4[nH]3)c2F)c1` [Example 37, N-({4-chloro-3-[(3-chloro-5-cyanophenyl)oxy]-2-fluorophenyl}methyl)-7-nitro-1H-indole-2-carboxamide], the figures for the IC50 in the assay with HIV-1 K103N RT mutant, with HIV-1 V106A RT mutant and in the assay on HIV-1 Y181C RT mutant were 10 to 1000 nM, > 1000 nM and > 1000 nM, respectively.

For the compound `COc1ccc2[nH]c3c(c2c1)CCN(Cc1ccc(Cl)c(Oc2cc(Cl)cc(C#N)c2)c1F)C3=O` [Example 38, 3-chloro-5-[(6-chloro-2-fluoro-3-{[6-(methyloxy)-1-oxo-1,3,4,9-tetrahydro-2H-β-carbolin-2-yl]methyl}phenyl)oxy]benzonitrile], the IC50 in the assay with HIV-1 K103N RT mutant, with HIV-1 V106A RT mutant and in the assay with HIV-1 Y181C RT mutant was 10 to 1000 nM in each case.

(Values after patent US8304419B2, “Chemical compounds” (priority 2007, dated 2012).)
